# Data from PMC4336329 (PLoS ONE, 2015).
# About 2,200 (0.71%) of roughly 310,000 compounds showed an effect of 50% or more. Effects have a minus sign here. This is one part of the list.
# Molecular target: human ether-à-go-go-related gene (hERG) potassium channel (human, UniProt Q12809)
# Assay: primary screen, population patch clamp on CHO cells stably expressing hERG
# human ether-à-go-go-related gene (hERG) potassium channel, sequence (Q12809 whole entry, looked up): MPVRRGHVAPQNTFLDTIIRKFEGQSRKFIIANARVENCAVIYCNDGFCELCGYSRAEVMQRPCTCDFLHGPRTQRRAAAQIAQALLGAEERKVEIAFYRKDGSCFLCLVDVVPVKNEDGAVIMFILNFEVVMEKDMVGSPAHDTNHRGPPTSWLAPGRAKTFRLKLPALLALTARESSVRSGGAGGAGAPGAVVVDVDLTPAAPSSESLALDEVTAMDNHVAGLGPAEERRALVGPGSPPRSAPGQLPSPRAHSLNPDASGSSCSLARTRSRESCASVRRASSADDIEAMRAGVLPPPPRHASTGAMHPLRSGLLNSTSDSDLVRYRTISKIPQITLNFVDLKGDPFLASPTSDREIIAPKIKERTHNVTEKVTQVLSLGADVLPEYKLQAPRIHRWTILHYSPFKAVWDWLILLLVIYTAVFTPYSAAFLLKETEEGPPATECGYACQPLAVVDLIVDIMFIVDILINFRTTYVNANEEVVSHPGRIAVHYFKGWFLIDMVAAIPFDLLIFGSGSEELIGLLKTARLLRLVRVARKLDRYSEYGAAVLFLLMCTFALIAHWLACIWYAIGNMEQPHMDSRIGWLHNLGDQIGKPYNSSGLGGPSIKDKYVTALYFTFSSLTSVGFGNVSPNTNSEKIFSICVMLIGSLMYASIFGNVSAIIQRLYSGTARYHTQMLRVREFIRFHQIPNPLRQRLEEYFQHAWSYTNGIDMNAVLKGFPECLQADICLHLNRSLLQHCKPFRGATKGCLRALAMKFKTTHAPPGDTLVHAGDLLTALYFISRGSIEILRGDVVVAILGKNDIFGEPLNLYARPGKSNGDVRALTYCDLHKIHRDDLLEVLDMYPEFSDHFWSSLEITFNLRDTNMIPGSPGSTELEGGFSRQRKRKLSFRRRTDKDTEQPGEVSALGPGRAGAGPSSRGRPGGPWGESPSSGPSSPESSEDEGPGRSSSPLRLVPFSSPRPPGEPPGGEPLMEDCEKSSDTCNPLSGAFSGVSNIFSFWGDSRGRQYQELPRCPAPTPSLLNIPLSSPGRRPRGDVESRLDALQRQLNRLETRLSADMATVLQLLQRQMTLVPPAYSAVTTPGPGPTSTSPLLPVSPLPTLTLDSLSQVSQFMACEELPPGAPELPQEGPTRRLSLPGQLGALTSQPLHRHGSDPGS
row,Structure (SMILES),"hERG current change (%, negative = inhibition) at 1uM [%]"
1,CCOC(=O)C1CCN(C(=O)COC(=O)c2ccc3[nH]c4c(c3c2)CCCC4)CC1,7.65
2,O=c1[nH]c(SCc2ccccc2[N+](=O)[O-])nc2nc[nH]c12,6.62
3,O=C(CC1CCOCC1)Nc1ccc(Cl)c(Cl)c1,10.6
4,O=C(c1ccc(Cn2cnnn2)cc1)N1CCCC(Nc2ccc(F)c(F)c2)C1 (centres unmarked),13.4
5,CCCCc1nc2ccccc2c(=O)n1-c1ccc(Cl)cc1[N+](=O)[O-],20.8
6,CCc1cccc(CC)c1NC(=O)CSc1nnc(C2CC2)n1C,9.93
7,COc1cccc(C2NC(=O)c3sc(=S)n(-c4ccccc4)c3N2)c1 (centres unmarked),8.07
8,CCCc1ccc(-c2ccc(C(=O)O)cc2)nc1,12.3
9,COc1ccc(C(=O)NC(=S)Nc2ccc(CN3CCOCC3)cc2)cc1,3.79
10,CC(=O)/C(C#N)=C1\NC(=O)C(Cc2ccc(C)c(C)c2)S1 (centres unmarked),8.94
11,CCc1ccc(C(=O)COC(=O)CCc2nc3ccccc3c(=O)[nH]2)cc1,8.69
12,C=CCc1cc(OC)ccc1OCCN(C)Cc1ccccc1.O=C(O)C(=O)O,5.86
13,CCC(C)NC(=O)CN(c1ccc(OC)cc1)S(=O)(=O)c1ccc(NC(C)=O)cc1 (centres unmarked),-4.93
14,O=C(CNC(=O)N1CC(=O)Nc2ccccc21)Nc1nccs1,14.9
15,O=S(=O)(c1cccs1)N1CCN(c2ccccc2F)CC1,4.98
16,Cc1ccccc1OC(C)C(=O)N1CCC(Cc2ccccc2)CC1 (centres unmarked),9.12
17,O=C(Cc1ccccc1)Nc1cccc(C(=O)O)c1O,8.24
18,S=C(NC1CCCC1)NC1CCCC1,14.9
19,Cc1cc(OC(=O)N(C)C)n(-c2ccccc2)n1,9.41
20,CN(C)S(=O)(=O)c1ccc(NCC2COc3ccccc3O2)c([N+](=O)[O-])c1 (centres unmarked),6.19
21,CC(C)C(C(=O)NCc1ccco1)N(C(=O)CNS(=O)(=O)c1ccc(Cl)cc1)C1CCCC1 (centres unmarked),5.77
22,COC(=O)Cc1cc(=O)n(-c2nc3ccccc3[nH]2)[nH]1,-22.9
23,COc1ccc(NC(=O)C2CCCN(c3nc(C)cc(C)n3)C2)cc1 (centres unmarked),15.1

row,Structure (SMILES),"hERG current change (%, negative = inhibition) at 1uM [%]"
1,CC(C)CN(C(=O)C1CCCCC1)C1CCS(=O)(=O)C1 (centres unmarked),8.28
2,CCNc1nc2c(c(=O)n(Cc3ccccc3)c(=O)n2C)n1Cc1ccccc1,-6.61
3,CSCCC(NS(=O)(=O)c1ccccc1F)C(=O)N1CC=C(c2ccccc2)CC1 (centres unmarked),15.1
4,COc1ccc(CCn2c(=N)c(C(=O)NCC3CCCO3)cc3c(=O)n4cccc(C)c4nc32)cc1OC (centres unmarked),-87.1
5,CCOC(=O)c1ccc(NC(=O)CSc2nnc(CNc3ccc(C)cc3)n2C)cc1,13.6
6,CN1C(=O)NC(=O)/C(=C/c2ccc([N+](=O)[O-])o2)C1=O,13.9
7,CC(CC1CC(C)(C)OC1=O)C(=O)Nc1ccc([N+](=O)[O-])cc1 (centres unmarked),-33.3
8,Cc1c(C)c2c(OCC(=O)N3CCC(O)CC3)cc3c(c2oc1=O)CCC(C)(C)O3,0.56
9,CCCCC1(CC(=O)OCC)C(=O)N(c2ccccc2)N(c2ccccc2)C1=O,2.83
10,COc1ccc(C(O)CNC(C)C)c(F)c1OC (centres unmarked),7.53
11,CC(Oc1ccccc1)C(=O)NCc1cccnc1 (centres unmarked),18.5
12,COc1ccc(-n2c(C)cc(/C=C(\C#N)C(=O)NCc3ccco3)c2C)cc1,5.62
13,O=C(C1CC1)N1CCN(c2ccc([N+](=O)[O-])cc2)CC1,-31.4
14,Cc1cc(-c2ccc(C(C)C)c(S(=O)(=O)N3CCC(C)CC3)c2)on1,16.7
15,CCCCc1cc(=O)oc2cc(C)cc(OC(C)C(=O)NCc3cccnc3)c12 (centres unmarked),5.33
16,Cc1ccc(C(N)=O)cc1S(=O)(=O)Nc1cccc(C)c1C,-0.699
17,Cc1nc(C(=O)N2CCC(n3nccc3NC(=O)Nc3ccccc3Cl)CC2)cs1,16.7
18,CC(C)C(=O)Nc1ccc(N2CCCC2)cc1,13.3
19,COc1ccc(-c2cc(C(=O)N3CCN(c4ncccn4)CC3)c3ccccc3n2)cc1,-0.158
20,COc1ccc(OCC(=O)N2CCN(C(=O)c3cccc(F)c3)CC2)cc1,6.42
21,CCN(CC)CCNCc1cc(Cl)ccc1OCc1ccccc1F.Cl,-4.89
22,CCC(CC)NC(=O)CO/N=C/c1ccc(Cl)cc1Cl,18.7
23,Cc1ccc(N(Cc2ccccc2)C(=O)c2ccc(Cl)c(S(=O)(=O)N3CCOCC3)c2)cc1,-25.2

row,Structure (SMILES),"hERG current change (%, negative = inhibition) at 1uM [%]"
1,CN(C)CCC(=O)N1c2ccccc2Sc2ccc(Cl)cc21.Cl,6.15
2,CCCCOc1ccc(C(=O)NCC(=O)N2CC(C)CC(C)C2)cc1 (centres unmarked),10.2
3,Cc1ccc(C(=O)C(C)OC(=O)Cn2[nH]c(=O)c3ccccc3c2=O)cc1C (centres unmarked),3.63
4,COc1ccc(N=C2NC(=O)/C(=C/c3ccco3)S2)cc1,21.7
5,CC1CCC(C(C)C)C(OC(=O)COC(=O)c2ccc(=O)[nH]c2)C1 (centres unmarked),1.61
6,Nc1nnc(-c2cn(-c3ccccc3)nc2-c2ccc(Cl)cc2)o1,14.8
7,CCNc1nc(=S)nc(NC(C)C)[nH]1,14
8,C=Cn1ccnc1CC(O)c1ccc(OC)cc1 (centres unmarked),11.8
9,CC1CCN(Cc2c(C(=O)N/N=C/c3ccccc3O)nnn2-c2nonc2N)CC1,13.6
10,CCCn1c2ccccc2c2nnc(SCC(=O)OCC)nc21,4.96
11,COc1cc(/C=N/N=C2/NC(=O)C(CC(=O)O)S2)ccc1OCc1ccc(Cl)cc1 (centres unmarked),9.17
12,O=C(OCC(=O)N1CCOCC1)c1ccc(Cl)cc1[N+](=O)[O-],11.8
13,CCC(C)n1c(NC(=O)c2ccccc2)c(C#N)c2nc3ccccc3nc21 (centres unmarked),16.6
14,COn1c(-c2ccc(Cl)cc2)nc2ccc(Cl)cc21,0.437
15,COc1cc(OC)c(C(=O)O/N=C(\N)c2cccc(C)c2)cc1OC,13.8
16,CC(C)(C)C(=O)Nc1ccc(Sc2ccc([N+](=O)[O-])cc2)cc1,5.23
17,O=C(NCCCCNC(=O)c1ccccc1Br)c1ccccc1Br,11.1
18,Cc1ccc(C(c2nnnn2Cc2cccs2)N2CCN(Cc3ccc4c(c3)OCO4)CC2)cc1 (centres unmarked),-1.16
19,CC(C)NC(=O)NC(=O)COC(=O)c1ccc(OC(F)(F)F)cc1,13
20,Cc1ccc(C(=O)N(CC(=O)NC2CCCC2)c2ccccc2Cl)s1,0.85
21,CCCCCCCC(=O)Nc1cc(C(=O)NCc2ccc(C)cc2)ccc1N1CCC2(CC1)CC(c1ccccc1)=NO2,18.3
22,CN(C)c1ccc(NC(=O)CSc2nnc(-c3cnccn3)n2C)cc1,18.3
23,C/C(=N\NC(=O)c1nnn(-c2nonc2N)c1-c1ccccc1)c1ccccc1O,8.96

row,Structure (SMILES),"hERG current change (%, negative = inhibition) at 1uM [%]"
1,O=C(Nc1cc(C(F)(F)F)ccc1Cl)C(=O)N1CCCCC1,0.682
2,CCOc1ccc(N2C(=O)NC(=O)/C(=C/c3cnc(SC)nc3)C2=O)cc1,22.3
3,Cc1ccc(Cn2ncn3c(cc4ccccc43)c2=O)cc1,15.5
4,CCn1c(=S)sc2c(=O)n(CC(=O)Nc3ccccc3)c(C)nc21,11
5,COCCCn1c(C)c(C(C)=O)cc(NC(=O)c2ccccc2)c1=O,14.9
6,COc1ccc(C=O)cc1OC(=O)C1(C)Cc2ccccc2C(=O)O1 (centres unmarked),10.5
7,COc1cc(-c2nnc(SCC(=O)Nc3cc(C)on3)n2C)cc(OC)c1O,0.799
8,O=C(N/N=C/c1c(O)n(CCC2=CCCCC2)c(=O)[nH]c1=O)c1ccccc1,18.9
9,COc1cc(O)c(C(CCN2CCCC(C)C2)c2ccc3c(c2)OCO3)c(OC)c1 (centres unmarked),-84.1
10,C#C[C@]1(O)CC[C@H]2[C@@H]3CCc4cc(O)ccc4[C@H]3CC[C@@]21C,18
11,CCO[C@H]1OC(C(N)=O)=C[C@@H](C2CC2)[C@@H]1CCCO,14.3
12,Cc1ccc2c(CN3CC(C)CC(C)C3)cc(=O)oc2c1 (centres unmarked),8.17
13,Cc1nc2nc(-c3ccccc3)nn2c(C)c1Cl,6.4
14,COc1ccc(N2CC(C(=O)Nc3nccs3)CC2=O)cc1 (centres unmarked),13.7
15,CC(C)[C@H](N)C(=O)NCC1CCC(C(=O)N[C@@H](Cc2ccccc2)C(=O)O)CC1.Cl (some centres unmarked),10.8
16,CCc1cc2c(=O)c(-c3nc(C)cs3)coc2cc1O,11
17,C=CCSc1nnc(NC(=O)CSc2ccccn2)s1,2.33
18,Cc1cc(C(=O)OC(C(=O)Nc2cccc(C(F)(F)F)c2)c2ccccc2)c(C)o1 (centres unmarked),10.7
19,CC(NC(=O)c1ccccc1F)c1cccc2ccccc12 (centres unmarked),12.5
20,COc1ccc(-c2cn3cccnc3n2)cc1F,14
